# From PubChem BioAssay AID488969 (Vanderbilt High Throughput Screening Facility, 2010)
# Over roughly 110,000 compounds, “z-score” has its median near -0.1; the highest 2% begin near 2. The list shows a part of the results. Active and inactive are the calls of the source.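 How the source made its calls: active means z-score in the third read window above 3 or below -3; inactive means the rest.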
# Target: Metabotropic glutamate receptor 8 (Rattus norvegicus) (UniProt P70579)
# Assay: rat mGluR8 modulators via GIRK flux, primary screen, cell-based, thallium flux, HTS (AID 488969)
# Conditions: HEK293 rat mGluR8, GIRK (G protein-gated inwardly rectifying potassium channel) thallium flux, FluoZin2; at 10 µM; stronger effect = higher value; submaximal glutamate (EC20) added with thallium
# Sequence of UniProt P70579 (P70579 whole entry, looked up): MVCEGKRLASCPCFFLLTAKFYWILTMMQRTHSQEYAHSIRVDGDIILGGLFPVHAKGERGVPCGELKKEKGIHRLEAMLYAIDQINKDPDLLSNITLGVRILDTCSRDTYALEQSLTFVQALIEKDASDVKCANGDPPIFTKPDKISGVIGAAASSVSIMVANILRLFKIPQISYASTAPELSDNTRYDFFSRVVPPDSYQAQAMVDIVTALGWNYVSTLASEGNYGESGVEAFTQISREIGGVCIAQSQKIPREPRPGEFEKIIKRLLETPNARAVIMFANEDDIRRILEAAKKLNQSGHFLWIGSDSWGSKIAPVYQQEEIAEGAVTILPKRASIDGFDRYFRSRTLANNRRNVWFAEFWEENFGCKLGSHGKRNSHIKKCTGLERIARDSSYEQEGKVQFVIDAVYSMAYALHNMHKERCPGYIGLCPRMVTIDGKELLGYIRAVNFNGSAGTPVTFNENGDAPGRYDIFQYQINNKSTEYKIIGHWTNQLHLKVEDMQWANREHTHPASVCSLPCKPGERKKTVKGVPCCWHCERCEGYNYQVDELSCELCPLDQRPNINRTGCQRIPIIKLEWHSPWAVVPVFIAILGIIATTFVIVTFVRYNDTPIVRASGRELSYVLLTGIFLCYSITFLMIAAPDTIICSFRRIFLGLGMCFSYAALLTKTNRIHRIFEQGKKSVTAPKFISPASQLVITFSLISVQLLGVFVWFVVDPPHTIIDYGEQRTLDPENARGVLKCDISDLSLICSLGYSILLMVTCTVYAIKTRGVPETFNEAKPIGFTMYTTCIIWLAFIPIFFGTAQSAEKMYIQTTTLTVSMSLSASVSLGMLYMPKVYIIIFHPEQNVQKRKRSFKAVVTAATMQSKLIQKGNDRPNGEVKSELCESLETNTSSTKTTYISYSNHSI
row,Structure (SMILES),z-score
1,COC(=O)c1sc(N2C(=O)c3oc4ccccc4c(=O)c3C2c2cccs2)nc1C (stereo not drawn),-0.0409
2,COc1ccc(S(=O)(=O)N2CCC(C(=O)NCc3ccco3)CC2)cc1,-0.307
3,O=C(O)CC12CSc3[nH]c(=O)sc3C1c1ccccc1OC2=O (stereo not drawn),-0.235
4,C/C(=N\N1CCN(C2c3ccccc3-c3ccccc32)CC1)c1ccncc1,-0.0694
5,O=C(N/N=C/c1ccc(Sc2ccccn2)o1)c1cc2ccccc2cc1O,active: 6.43
6,Nc1ncnc(Sc2ccc(Cl)cc2)c1[N+](=O)[O-],0.133
7,Cc1nnc(SCC(=O)Nc2nc3ccccc3s2)n(N)c1=O,0.179
8,COc1ccc(C(=O)OCC(=O)c2ccccc2)cc1S(=O)(=O)N1CCOCC1,-0.592
9,c1ccc(OCCn2cnc3ccccc32)cc1,-0.206
10,COc1ccc(CN(C)CC(=O)Nc2ccccc2C(F)(F)F)c(OC)c1,-0.0562
11,Cc1nn(-c2cccc(Cl)c2)c(Cl)c1/C=N/NC(=O)c1cccnc1,-0.354
12,COCCCNC(=O)CS(=O)Cc1nc(-c2ccccc2C)oc1C (stereo not drawn),-0.567
13,Nc1ccc(-c2n[nH]c(=O)c3ccccc23)cc1N,-0.12
14,CCCC(CCC(=O)NC1CCCCC1)C(=O)O (stereo not drawn),-0.0489
15,COc1cccc(S(=O)(=O)NCc2ccc(C(=O)Nc3ccc(Cl)c(Cl)c3)cc2)c1,-0.285
16,COc1ccc(-c2nc3ccc([N+](=O)[O-])cc3o2)cc1,0.114
17,CCCC(=O)N(c1ccc2oc(=O)sc2c1)S(=O)(=O)c1cccs1,0.627
18,CCOc1ccc(C2/C(=C(/O)c3ccc(OC)cc3)C(=O)C(=O)N2c2cc(C)on2)cc1OC (stereo not drawn),-0.315
19,O=C1CCc2cc(S(=O)(=O)N3CCC(C(=O)NC4CCCCCCC4)CC3)ccc2N1,-0.173
20,COc1ccc(CCNC(=O)CCNC(=O)c2ccc(Br)cc2)cc1OC,-0.112
21,CCCc1oc(C(=O)O)cc1CN,-0.0602
22,Cc1nn(C)cc1/C=N\NC(=O)Cc1ccc([N+](=O)[O-])cc1,0.136
23,C#CCSc1nnc(-c2sc(-c3ccccc3)nc2C)n1C,-0.129
24,CC(=O)Nc1cccc(C(=O)Nc2ccccc2N2CCOCC2)c1,-0.0816
25,COc1ccc(C2=C(Nc3ccccc3)c3ccccc3C2=O)cc1,-0.143

row,Structure (SMILES),z-score
1,O=C(CN1C(=O)CCSc2ccccc21)Nc1ccc2c(c1)OCCO2,-0.0786
2,C=CCn1c(CNC(=O)c2cccs2)n[nH]c1=S,-0.133
3,CCC(Sc1ncccc1C(=O)OC(C)C)C(=O)N1CCOCC1 (stereo not drawn),-0.0295
4,CCCCC1=NN(C(=O)c2cocc2C)C(O)(C(F)(F)F)C1 (stereo not drawn),0.0885
5,COc1ccc(Cc2nnc(SCc3nc4ccccc4c(=O)[nH]3)n2C)cc1,0.419
6,O=c1c2ccccc2ncn1CCCOc1ccccc1[N+](=O)[O-],-0.198
7,CC1CC(C)CN(CC(=O)N2c3ccccc3CCc3ccccc32)C1 (stereo not drawn),0.434
8,COc1ccc(C(=O)/C=C/c2cn(CN3CCN(C)CC3)c3ccccc23)cc1,-0.629
9,O=C(CC1CCCC1)NCCc1cn2ccccc2n1,-0.194
10,CSc1nc(-c2ccccc2)nn1C(=O)c1ccco1,-0.179
11,O=C(Nc1ccn(Cc2ccc(Cl)cc2)n1)c1ccc2c(c1)OCO2,-0.0622
12,COc1ccc(NC(=O)c2sc(NC(=O)COc3ccccc3)nc2C)cc1,0.0267
13,CN(C)c1ccc(/C=N/N2C(=N)N(c3ccccc3)C(=S)C2=Nc2ccccc2)cc1,0.219
14,COc1ccc(CCNc2oc(COc3ccccc3F)nc2C#N)cc1,-1.13
15,CCc1ccc(C2CC(=O)N3CN(c4ccccc4)CSC3=C2C#N)cc1 (stereo not drawn),-0.525
16,Cn1nnc(-c2ccc(OCc3ccccc3F)cc2)n1,-0.0311
17,Cc1cc(C(=O)Nc2sc3c(c2C#N)CCC(C)C3)no1 (stereo not drawn),0.635
18,CN(C)c1ccc(C(=S)N2CCNCC2)cc1,-0.0686
19,COc1ccc2c(c1)[nH]c1c(=O)n(CCC3=CCCCC3)cnc12,-0.212
20,N/C(CN1CCCC1=O)=N\OC(=O)c1ccc(Cl)cc1,0.084
21,NC(=O)C1(N2CCCCC2)CCN(c2nc(-c3ccc(Br)cc3)cs2)CC1,-0.17
22,Cc1ccc(NC(=O)CCC(=O)N/N=C/c2cc([N+](=O)[O-])ccc2O)cc1,-0.0674
23,COCc1nnc(NC(=O)c2sc3ccccc3c2Cl)s1,0.223
24,Cc1cc(=O)[nH]c(N/N=C/c2ccco2)n1,-0.115
25,O=C(CN1C(=O)NC2(CCc3ccccc3C2)C1=O)Nc1ccc(Cl)cc1F (stereo not drawn),-0.119

row,Structure (SMILES),z-score
1,O=C(Nc1ccc2c(c1)OCO2)Nc1ccc(Br)cn1,-0.234
2,COc1cc(C(=O)Oc2cc(C)cc(C)c2)cc(OC)c1OC,-0.106
3,NC(=O)CSc1nc2ccccc2n1Cc1ccccc1F,-0.701
4,CCCC(=O)NC(=S)Nc1ccc(S(=O)(=O)Nc2ccc(OCC)cc2)cc1,-0.292
5,COc1ccc(N2C(=O)CC(Nc3ccc(C)cc3)C2=O)cc1 (stereo not drawn),-0.557
6,COc1ccc(CNC(=O)c2c(C)nc3ccccn23)cc1,-0.0334
7,CC(C)On1c(SC(C)C)nc2ccccc2c1=O,-0.921
8,CCCCSc1ccc(NC(=O)c2cccnc2)cc1,-0.00962
9,COc1ccc(NC(=S)NCCC(c2ccccc2)c2ccccc2)c(OC)c1,-0.011
10,O=C(Cn1c(=O)oc2ccccc21)Nc1nc(-c2ccccc2)cs1,-0.0638
11,O=C(NC1CCCCCC1)c1ccc2c(=O)n3c(nc2c1)CCCCC3,0.502
12,O=c1[nH]cnc2c1c(-c1ccccc1)cn2-c1ccc(F)cc1,-0.295
13,O=C(OCc1c(Cl)cccc1Cl)c1cnccn1,0.418
14,COc1ccccc1Nc1nc(N)nc(CN2CCc3ccccc3C2)n1,-0.385
15,Cc1cc(NC(=O)c2cccs2)n(-c2ccccc2)n1,-0.267
16,COc1ccc(NC(=O)Cc2coc3ccc4ccccc4c23)cc1S(=O)(=O)N1CCOCC1,0.493
17,N#CC(C#N)=C1NC2(CCCC2)Cc2ccccc21,-0.252
18,CCc1cc([N+](=O)[O-])cc(CC)c1N,-0.408
19,CC(C)c1ccc(NC(=O)COC(=O)COc2ccccc2)cc1,-0.24
20,CCCOc1ccc(C(=O)N/N=C/c2ccc(-c3ccc(S(=O)(=O)Nc4ncccn4)cc3)o2)cc1,-0.447
21,CCCCOc1ccc(C(=O)N2CCC(C)CC2)cc1,-0.401
22,O=C(Nc1ccccc1)c1ccc(CSc2ncccn2)cc1,0.0416
23,CS(=O)c1ccccc1-c1nc(-c2cc(C(F)(F)F)cc(C(F)(F)F)c2)no1 (stereo not drawn),0.148
